PubChem BioAssay AID1347073 (National Center for Advancing Translational Sciences (NCATS), 2019)
Out of some 45,000 compounds screened, about 200 (0.44%) were called active. Not shown: some 7% with an inconclusive outcome. Calls come from the whole dose curve; as a rule, active = well fitted activation curve with a large enough effect; inconclusive = small, poorly fitted or top-dose-only effect; inactive = no such curve, though single readings can be large or run the other way. The list shows a part of the results.

assay: qHTS of TDP-43 Inhibitors: NCGC Sytravon Library Screen; settings: yeast TDP-43 toxicity rescue, BacTiter-Glo growth, 24 h; series mostly up to 46.1 µM; growth rescue (activation): at the top concentration; note: 0% is about no effect; nearly all actives have a fitted effect of over 55% in size
How it was run: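 TDP-43-expressing yeast, pregrown in raffinose, seeded at OD600 0.02 in galactose medium with compound for 24 hr at 30 deg C. Growth read by BacTiter-Glo luminescence, so rescue of toxicity appears as activation.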

Compound | growth rescue (activation)
Cc1cc(C(C)(C)C)cc(C)c1CCNC(=O)c1ccc[n+]([O-])c1 | inactive: 12.8%
O=C(CCN1C(=O)S/C(=C/c2ccc(Cl)cc2)C1=O)N1CCOCC1 | inactive: 10%
CCSc1nnc(NC(=O)[C@@H](NC(=O)c2ccccc2)C(C)C)s1 | inactive: 8.89%
COc1ccc(NC(=O)CCSc2ccc(C)cc2)cc1 | inactive: 25.6%
CCN(CC(=O)NC1CCS(=O)(=O)C1)S(=O)(=O)c1ccc(F)cc1 (configuration not stated) | inactive: 6.94%
COc1cc(NC(=O)COc2ccc(Cl)cc2)ccc1NC(=O)C(C)C | inactive: 21.1%
CC(NC(=O)C1CCCN1S(=O)(=O)c1ccc2c(c1)n(C)c(=O)c(=O)n2C)c1ccccc1 (configuration not stated) | inactive: -16.3%
CN1CCCN(C(=O)CNC(=O)c2ccc(Cl)cc2Cl)CC1 | inactive: 0.285%
CC(=O)c1ccc(NC(=O)c2cccc(N3C(=O)c4ccccc4C3=O)c2)cc1 | inactive: -17.4%
NNc1nc(N)c2c(n1)-c1ccccc1CC21CCCC1 | inactive: 13.9%
COc1ccc2cc(C(=O)NCc3ccccc3)c(=Nc3ccc(C(=O)O)cc3)oc2c1 | inactive: 9.87%
O=c1[nH]n(-c2ccccc2Cl)c(=O)c2ccccc12 | inactive: 1.47%
Cc1cc(SCC(=O)Nc2ccc3[nH]c(=O)[nH]c3c2)nc2ccccc12 | inactive: -2.97%
Cc1nc2ccccc2nc(C)c1=NOCc1ccc(C#N)cc1 | inactive: -7.72%
O=C(CSc1n[nH]c(-c2cccnc2)n1)Nc1ccc([N+](=O)[O-])cc1 | inactive: 13.6%
Cc1ccc(CNC(=O)C(Cc2ccccc2)n2cccc2)cc1 (configuration not stated) | inactive: 13.3%
COc1cc(C(=O)NC2CCN(CC(=O)NC3CCCCC3C)CC2)cc(OC)c1OC (configuration not stated) | inactive: 10.9%
CCn1c(COc2ccc(C)cc2)nnc1SCC(=O)NCc1ccco1 | inactive: 1.4%
CC(=O)c1ccc(NC(=S)N(CCCN(C)C)Cc2ccccc2)cc1 | inactive: 4.43%
CC(CC(=O)N1CCN(c2ccccc2)CC1)c1ccccc1 (configuration not stated) | inactive: 8.23%
Cc1cc(C)c(NC(=O)CCCCCNC2CCCCC2)c(C)c1 | inactive: -3.38%
CCC(O)C1CCN(C(=O)c2cc(COc3ccc4ncccc4c3)on2)CC1 (configuration not stated) | inactive: 8.3%

Compound | growth rescue (activation)
O=C(CN1CCCN(S(=O)(=O)c2ccc(F)cc2)CC1)Nc1c(Cl)cccc1Cl | inactive: -3.3%
COc1ccc(Cl)cc1N(CC(=O)N1CCCC1)S(=O)(=O)c1ccc(C)cc1 | inactive: -0.61%
Cc1ccccc1OCCNC(=O)c1ccco1 | inactive: 21.8%
O=C(COC(=O)c1ccc(S(=O)(=O)N2CCCC2)cc1)NCc1ccco1 | inactive: 18.1%
COc1ccc(NC(=O)CCCNC(=O)c2ccc(Cl)cc2)c(OC)c1 | inactive: 0.427%
NS(=O)(=O)c1ccc(CCNC(=O)C(c2ccccc2)c2ccccc2)cc1 | inactive: 3.31%
CCc1ccccc1NC(=S)N(CCN1CCOCC1)C1CCN(C(C)=O)CC1 | inactive: -5.95%
CCn1cc(C(=O)NCc2ccc(Cl)cc2)c(=O)c2cc(S(=O)(=O)N(C)C)ccc21 | inactive: 8.8%
Cc1cc(C=O)c(C)n1-c1ccc(Oc2ccc([N+](=O)[O-])cn2)cc1 | inactive: 3.7%
Cc1nnc(SCc2nc3sc4c(c3c(=O)[nH]2)CCCC4)n(N)c1=O | inactive: 6.65%
Cc1nc(Cn2c3ccc(NC(=S)NC4CCCCC4)cc3c(=O)n2C)cs1 | inactive: 1.98%
COc1ccc(Cl)cc1NC(=O)CCN1C(=O)C2C3C=CC(C4CC34)C2C1=O (configuration not stated) | inactive: 20.9%
O=C(CN1C(=O)NC2(CCCC2)C1=O)NCc1ccc(F)cc1 | inactive: 4.48%
O=C(NC(=S)Nc1nc2ccccc2s1)c1ccco1 | inactive: 7.6%
CC(C)c1ccc(/C=N/N2CCN(c3ccccn3)CC2)cc1 | inactive: 21.6%
COC(=O)C1CC(=O)N(Cc2ccccc2)C1 (configuration not stated) | inactive: 7.05%
CSc1ncccc1C(=O)Nc1ccc2c(c1)OCCO2 | inactive: 16%
COc1ccccc1NC(=O)Nc1ccc2c(c1)nnn2C | inactive: -8.22%
COC(=O)c1ccc(N2C(=O)c3cc(N4CCOCC4)c([N+](=O)[O-])cc3C2=O)cc1 | inactive: -14%
CCOc1ccc(S(=O)(=O)Nc2cnc3ccccc3c2)cc1 | inactive: 19.9%
CC(/C=N/NC(=O)c1ccc2nc(C)[nH]c2c1)=C\c1ccccc1 | inactive: 9.65%
Cc1[nH]c2ccccc2c1/C=N/NC(=O)c1cccs1 | inactive: 18.8%

Compound | growth rescue (activation)
COc1ccc(N2CCN(C(=O)CNC(=O)Cc3ccc(Cl)cc3)CC2)cc1 | inactive: 9.37%
O=Cc1ccc(-c2nc3ccccc3s2)o1 | inactive: -0.318%
CC1=Nc2ccccc2N=C(NC(=O)/C=C/C(=O)O)C1c1ccccc1 (configuration not stated) | inactive: 0.409%
O=C(O)c1ccc(-n2ccnc2)c([N+](=O)[O-])c1 | inactive: 13.9%
O=C(Nc1ccc(N2CCCCCC2)cc1)c1ccccc1Cl | inactive: -4.55%
Cc1ccc(-n2c(N)c(Br)c(=O)[nH]c2=O)cc1C | inactive: 16.4%
Cc1ccc(N(CC(N)=O)C2SC(=O)N(Cc3cccc(C(=O)O)c3)C2=O)cc1 (configuration not stated) | inactive: -24%
O=[N+]([O-])c1cc(S(=O)(=O)N2CCCC2)ccc1N/N=C/c1ccncc1 | inactive: 29%
Cc1cccc(N2C(S)=C(C#N)C(=O)NC2c2ccco2)c1 (configuration not stated) | inactive: 11.3%
COc1ccc(NC(=O)C2(C)CCN2Cc2csc3ccccc23)cc1OC (configuration not stated) | inactive: 5.57%
COCCNc1nc(Oc2cccc3ccccc23)c2sccc2n1 | inactive: 23.9%
O=C(O)c1c2c(nc3ccccc13)/C(=C/c1ccccc1[N+](=O)[O-])CCC2 | inactive: -4.91%
C=CCN(CC(O)c1cccc([N+](=O)[O-])c1)C(C)CCc1ccccc1 (configuration not stated) | inactive: -32.5%
Cn1ncc(Cl)c(Oc2ccc(Cl)cc2)c1=O | inactive: 28.3%
CCOc1ccc2oc(C(=O)Nc3ccc4c(c3)OCO4)c(C)c2c1 | inactive: -28.8%
CCCNC(=O)C1(C)CCCN(C(=O)c2cc(F)ccc2C)C1 (configuration not stated) | inactive: 2.39%
CSc1ccccc1OCc1cc(C(=O)NCCn2nc(C)cc2C)no1 | inactive: -4.32%
Cc1cccc(C)c1NS(=O)(=O)c1ccc2c(c1)NC(=O)CO2 | inactive: -8.96%
COc1ccc(-n2nnnc2SCC(=O)NC(=O)Nc2ccc3c(c2)OCCO3)cc1 | inactive: 20.2%
COc1ccc(CC2(CO)CCN(C/C=C/c3ccccc3OC)CC2)cc1 | inactive: -2.63%
CSCC[C@H](NC(=O)Nc1ccc(OC(F)(F)F)cc1)C(=O)O | inactive: 5.02%
NC(=O)c1c(N)sc2c1CCC2 | inactive: -16.1%

Compound | growth rescue (activation)
Cc1cccc(OCC(=O)N(Cc2cccc(Cl)c2)Cc2ccco2)c1C | inactive: 13%
CC(C)(C)C1CCC(C(=O)Nc2cccnc2)CC1 (configuration not stated) | inactive: 10.7%
O=C(C1CCN(C2CCN(C/C=C/c3ccccc3)CC2)CC1)N1CCOCC1 | inactive: 6.33%
CCN(CC)CCNS(=O)(=O)c1ccc(/C=C/C(=O)O)cc1 | inactive: 10.3%
CC(=O)c1cccc(N(CC(=O)Nc2ccc(F)cc2)S(C)(=O)=O)c1 | inactive: 8.81%
CSc1cccc(NC(=O)CCCOc2ccc(Cl)cc2C)c1 | inactive: 20%
O=C(O)CSc1nnc(-c2ccc(Cl)cc2Cl)n1-c1ccc(Br)cc1 | inactive: 3.24%
CCc1cccc(CC)c1NC(=O)c1ccccc1 | inactive: 10.3%
NS(=O)(=O)c1ccc(CCNC(=O)c2coc3ccccc3c2=O)cc1 | inactive: 4.49%
S=c1[nH]nc(COc2cccc3ccccc23)n1Cc1ccccc1 | inactive: 0.82%
CC(=O)Nc1cc(-c2cccc(C(=O)N(C)C)c2)cn2c(-c3ccccc3)cnc12 | inactive: -1.63%
CNS(=O)(=O)c1ccc2nc(NC(=O)c3ccc(N4C(=O)CCC4=O)cc3)sc2c1 | inactive: -13.9%
O=C(CNCCc1ccccc1)Nc1ccc(C(=O)N2CCCCC2)cc1 | inactive: -3.72%
COc1ccc(CC(=O)OCC(=O)Nc2ccc(Cl)cc2C)cc1 | inactive: 28.3%
CCCCc1nc2ccccc2n1CC(=O)NN | inactive: 1.48%
COc1ccccc1CN1C[C@@H]2C[C@@H](c3cccc(C)n3)N3CCC[C@@]23C1=O | inactive: -0.0853%
CC(C)NC(=O)NC(=O)COC(=O)c1ccc(OC(F)(F)F)cc1 | inactive: 17.5%
CCc1ccc(N2CC(C)Cn3c2nc2c3c(=O)[nH]c(=O)n2C)cc1 (configuration not stated) | inactive: 0.451%
O=C(CC1S/C(=N/N=C/C=C/c2ccccc2)NC1=O)Nc1ccc(C(=O)O)cc1 (configuration not stated) | inactive: 20.7%
CCc1ccc(N(C(=O)c2csnn2)C(C(=O)NC(C)(C)CC)c2cccnc2)cc1 (configuration not stated) | inactive: 7.01%
CC(NC(=O)c1ccc2c(c1)OCCO2)c1ccc(S(N)(=O)=O)cc1 (configuration not stated) | inactive: -15.3%
O=C(CSc1ccccc1)Nc1ccc(C(=O)Nc2cccc(O)c2)cc1 | inactive: 5.57%

Compound | growth rescue (activation)
Cc1ccc(OCC(=O)Nc2cc(S(=O)(=O)N3CCCCC3)ccc2C)c([N+](=O)[O-])n1 | inactive: 11.6%
Cc1cc(C(C2C(=O)CC(C)(C)CC2=O)C2C(=O)CC(C)(C)CC2=O)cc(C)c1OC(F)F | inactive: 4%
O=C(NCc1ccccc1)c1ccc(S(=O)(=O)NCc2ccco2)cc1 | inactive: 13.8%
Cc1ccccc1CN1CCc2cc([N+](=O)[O-])ccc21 | inactive: 15.6%
CC(Sc1ccc(S(=O)(=O)N2CCOCC2)cc1[N+](=O)[O-])C(=O)O (configuration not stated) | inactive: 10.1%
COc1ccc(C(=O)NC(=S)NNC(=O)c2ccco2)cc1 | inactive: -2.79%
CC(C)C(=O)N1CCC1(C)C(=O)Nc1ccc(-n2cncn2)cc1 (configuration not stated) | inactive: 11.9%
CCn1c2c(c(=N)c3c1CCC3)CCCC2 | inactive: 8.49%
COc1ccc(C(=O)N[C@H](C(=O)NCCCSc2ccccc2)C(C)C)cc1 | inactive: 1.66%
CCOC(=O)c1ccc2ncc(C(=O)OCC)c(NCCc3ccc(OC)c(OC)c3)c2c1 | inactive: 14.6%
C/C(=N\NC(=O)CCCC(=O)O)c1c(-c2ccccc2)c2cc(Cl)ccc2[nH]c1=O | inactive: 5.69%
O=c1c2ccccc2oc2cc(OCc3ccc(F)cc3)cc(O)c12 | inactive: 9.67%
CCc1nc2c(OCC(=O)C(C)(C)C)cccn2c1N(C)C(=O)c1ccc(C)cc1 | inactive: 14%
COc1cc(NC(=O)Cn2ccsc2=N)c(C)cc1[N+](=O)[O-] | inactive: -13.1%
COc1ccc(-n2nc(C(=O)NCC(=O)N3CCN(Cc4ccccc4)CC3)c3ccccc3c2=O)cc1OC | inactive: 8.03%
COCCn1c(C)cc(C(=O)CN2CCCCC2)c1C | inactive: 9.97%
COc1cc(C(=O)NCCc2ccc(F)cc2)c([N+](=O)[O-])cc1OC | inactive: 4.83%
Cc1ccccc1-c1nc(NC(=O)CSc2ncnc3sc4c(c23)CCCC4)ns1 | inactive: -3.59%
O=C(CSc1nc(-c2ccccc2)cc(C(F)(F)F)n1)c1cccc([N+](=O)[O-])c1 | inactive: 6.61%
